# Reference: the supplement of paper PMC8728848
# The list shows a part of the results.
# B1: SBD-G4S3-Fc (protein)
# chain: MASIPSSASVQLDSYNYDGSTFSGKIYVKNIAYSKKVTVVYADGSDNWNNNGNIIAASFSGPISGSNYEYWTFSASVKGIKEFYIKYEVSGKTYYDNNNSANYQVSTGGGGSGGGGSGGGGSEFVPRDCGCKPCICTVPEVSSVFIFPPKPKDVLTITLTPKVTCVVVDISKDDPEVQFSWFVDDVEVHTAQTQPREEQFNSTFRSVSELPIMHQDWLNGKEFKCRVNSAAFPAPIEKTISKTKGRPKAPQVYTIPPPKEQMAKDKVSLTCMITDFFPEDITVEWQWNGQPAENYKNTQPIMDTDGSYFVYSKLNVQKSNWEAGNTFTCSVLHEGLHNHHTEKSLSHSPGAA
# Legend:
# Test in all cases: glycan array binding signal (z-score within array); higher = stronger binding
# Details in all cases: glycan notation: IUPAC condensed, linker removed
# [1] = molecular target: Neu5Ac(a2-3)Gal(b1-3)[Fuc(a1-4)]GlcNAc
# In short: (§1)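 Glycan array data were curated from 3228 arrays in the Consortium for Functional Glycomics database and kept only where the protein sequence was available. Glycan names were converted to IUPAC-condensed notation, and columns mapping to the same glycan were averaged. The binding signal is a within-array Z-score, averaged across arrays of the same protein sequence at different concentrations or buffers and across linkers. Negative Z-scores can be read as non-binding.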
# [2] = molecular target: Neu5Ac(a2-3)Gal(b1-3)[Fuc(a1-4)]GlcNAc(b1-3)Gal(b1-3)[Fuc(a1-4)]GlcNAc
# In short: as §1
# [3] = molecular target: Neu5Ac(a2-3)Gal(b1-3)[Fuc(a1-4)]GlcNAc(b1-3)Gal(b1-4)[Fuc(a1-3)]GlcNAc
# In short: as §1
# [4] = molecular target: Neu5Ac(a2-3)Gal(b1-3)[GlcNAc(b1-6)]GalNAc
# In short: as §1
# [5] = molecular target: Neu5Ac(a2-3)Gal(b1-3)[Neu5Ac(a2-6)]GalNAc
# In short: as §1
# [6] = molecular target: Neu5Ac(a2-3)Gal(b1-3)[Neu5Ac(a2-6)]GlcNAc(b1-3)[Fuc(a1-3)[Gal(b1-4)]GlcNAc(b1-6)]Gal(b1-4)Glc
# In short: as §1
# [7] = molecular target: Neu5Ac(a2-3)Gal(b1-3)]Neu5Ac(a2-3)Gal(b1-4)]GlcNAc
# In short: as §1
# Neu5Ac(a2-3)Gal(b1-4)Glc = molecular target: Neu5Ac(a2-3)Gal(b1-4)Glc
# In short: as §1
# [8] = molecular target: Neu5Ac(a2-3)Gal(b1-4)GlcNAc
# In short: as §1
# [9] = molecular target: Neu5Ac(a2-3)Gal(b1-4)GlcNAc(b1-2)Man
# In short: as §1
# [10] = molecular target: Neu5Ac(a2-3)Gal(b1-4)GlcNAc(b1-2)Man(a1-3)[GlcNAc(b1-4)][Neu5Ac(a2-3)Gal(b1-4)GlcNAc(b1-2)Man(a1-6)]Man(b1-4)GlcNAc(b1-4)GlcNAc
# In short: as §1
# [11] = molecular target: Neu5Ac(a2-3)Gal(b1-4)GlcNAc(b1-2)Man(a1-3)[Neu5Ac(a2-3)Gal(b1-4)GlcNAc(b1-2)Man(a1-6)]Man(b1-4)GlcNAc(b1-4)GlcNAc
# In short: as §1
# [12] = molecular target: Neu5Ac(a2-3)Gal(b1-4)GlcNAc(b1-2)Man(a1-3)[Neu5Ac(a2-3)Gal(b1-4)GlcNAc(b1-2)Man(a1-6)]Man(b1-4)GlcNAc(b1-4)[Fuc(a1-6)]GlcNAc
# In short: as §1
# [13] = molecular target: Neu5Ac(a2-3)Gal(b1-4)GlcNAc(b1-2)Man(a1-3)[Neu5Ac(a2-6)Gal(b1-4)GlcNAc(b1-2)Man(a1-6)]Man(b1-4)GlcNAc(b1-4)GlcNAc
# In short: as §1
# [14] = molecular target: Neu5Ac(a2-3)Gal(b1-4)GlcNAc(b1-2)[Neu5Ac(a2-3)Gal(b1-4)GlcNAc(b1-4)]Man(a1-3)[GlcNAc(b1-4)][Neu5Ac(a2-3)Gal(b1-4)GlcNAc(b1-2)[Neu5Ac(a2-3)Gal(b1-4)GlcNAc(b1-6)]Man(a1-6)]Man(b1-4)GlcNAc(b1-4)GlcNAc
# In short: as §1
# [15] = molecular target: Neu5Ac(a2-3)Gal(b1-4)GlcNAc(b1-2)[Neu5Ac(a2-3)Gal(b1-4)GlcNAc(b1-4)]Man(a1-3)[GlcNAc(b1-4)][Neu5Ac(a2-3)Gal(b1-4)GlcNAc(b1-4)Man(a1-6)]Man(b1-4)GlcNAc(b1-4)GlcNAc
# In short: as §1
# [16] = molecular target: Neu5Ac(a2-3)Gal(b1-4)GlcNAc(b1-2)[Neu5Ac(a2-3)Gal(b1-4)GlcNAc(b1-6)]Man(a1-6)[Neu5Ac(a2-3)Gal(b1-4)GlcNAc(b1-2)Man(a1-3)]Man(b1-4)GlcNAc(b1-4)GlcNAc
# In short: as §1
# [17] = molecular target: Neu5Ac(a2-3)Gal(b1-4)GlcNAc(b1-2)[Neu5Ac(a2-3)Gal(b1-4)GlcNAc(b1-6)]Man(a1-6)[Neu5Ac(a2-3)Gal(b1-4)GlcNAc(b1-2)Man(a1-3)][GlcNAc(b1-4)]Man(b1-4)GlcNAc(b1-4)GlcNAc
# In short: as §1
# [18] = molecular target: Neu5Ac(a2-3)Gal(b1-4)GlcNAc(b1-3)Gal
# In short: as §1
# [19] = molecular target: Neu5Ac(a2-3)Gal(b1-4)GlcNAc(b1-3)Gal(b1-3)GlcNAc
# In short: as §1
# [20] = molecular target: Neu5Ac(a2-3)Gal(b1-4)GlcNAc(b1-3)Gal(b1-4)GlcNAc
# In short: as §1
# [21] = molecular target: Neu5Ac(a2-3)Gal(b1-4)GlcNAc(b1-3)Gal(b1-4)GlcNAc(b1-2)Man(a1-3)[Neu5Ac(a2-3)Gal(b1-4)GlcNAc(b1-3)Gal(b1-4)GlcNAc(b1-2)Man(a1-6)]Man(b1-4)GlcNAc(b1-4)GlcNAc
# In short: as §1
# [22] = molecular target: Neu5Ac(a2-3)Gal(b1-4)GlcNAc(b1-3)Gal(b1-4)GlcNAc(b1-3)Gal(b1-4)GlcNAc
# In short: as §1
# [23] = molecular target: Neu5Ac(a2-3)Gal(b1-4)GlcNAc(b1-3)Gal(b1-4)GlcNAc(b1-3)Gal(b1-4)GlcNAc(b1-2)Man(a1-3)[Neu5Ac(a2-3)Gal(b1-4)GlcNAc(b1-3)Gal(b1-4)GlcNAc(b1-3)Gal(b1-4)GlcNAc(b1-2)Man(a1-6)]GalNAc
# In short: as §1
# [24] = molecular target: Neu5Ac(a2-3)Gal(b1-4)GlcNAc(b1-3)Gal(b1-4)GlcNAc(b1-3)GalNAc
# In short: as §1
# [25] = molecular target: Neu5Ac(a2-3)Gal(b1-4)GlcNAc(b1-3)Gal(b1-4)GlcNAc(b1-3)[Neu5Ac(a2-3)Gal(b1-4)GlcNAc(b1-3)Gal(b1-4)GlcNAc(b1-6)]GalNAc
# In short: as §1
# [26] = molecular target: Neu5Ac(a2-3)Gal(b1-4)GlcNAc(b1-3)Gal(b1-4)GlcNAc(b1-6)[Gal(b1-3)]GalNAc
# In short: as §1
# [27] = molecular target: Neu5Ac(a2-3)Gal(b1-4)GlcNAc(b1-3)Gal(b1-4)[Fuc(a1-3)]GlcNAc
# In short: as §1
# [28] = molecular target: Neu5Ac(a2-3)Gal(b1-4)GlcNAc(b1-3)GalNAc
# In short: as §1
# [29] = molecular target: Neu5Ac(a2-3)Gal(b1-4)GlcNAc(b1-3)[Neu5Ac(a2-3)Gal(b1-4)GlcNAc(b1-6)]GalNAc
# In short: as §1
binder,measurement,setting,value
B1,glycan array binding signal (z-score),[1],-0.191
same,glycan array binding signal (z-score),[2],0.232
same,glycan array binding signal (z-score),[3],-0.04
same,glycan array binding signal (z-score),[4],-0.317
same,glycan array binding signal (z-score),[5],0.154
same,glycan array binding signal (z-score),[6],-0.451
same,glycan array binding signal (z-score),[7],-0.134
same,glycan array binding signal (z-score),Neu5Ac(a2-3)Gal(b1-4)Glc,-0.204
same,glycan array binding signal (z-score),[8],-0.154
same,glycan array binding signal (z-score),[9],0.524
same,glycan array binding signal (z-score),[10],-0.442
same,glycan array binding signal (z-score),[11],-0.115
same,glycan array binding signal (z-score),[12],0.186
same,glycan array binding signal (z-score),[13],0.113
same,glycan array binding signal (z-score),[14],-0.281
same,glycan array binding signal (z-score),[15],-0.172
same,glycan array binding signal (z-score),[16],0.242
same,glycan array binding signal (z-score),[17],-0.24
same,glycan array binding signal (z-score),[18],-0.181
same,glycan array binding signal (z-score),[19],-0.229
same,glycan array binding signal (z-score),[20],-0.321
same,glycan array binding signal (z-score),[21],0.222
same,glycan array binding signal (z-score),[22],0.781
same,glycan array binding signal (z-score),[23],0.357
same,glycan array binding signal (z-score),[24],-0.006
same,glycan array binding signal (z-score),[25],-0.047
same,glycan array binding signal (z-score),[26],-0.041
same,glycan array binding signal (z-score),[27],-0.215
same,glycan array binding signal (z-score),[28],-0.285
same,glycan array binding signal (z-score),[29],-0.412
